The structures appear in SMILES notation. Among all 48,000 compounds or so, about 550 (1.1%) were called active. About 4% were inconclusive and are not listed. Cut-off read from the data, not from the text of the source: active = potency below about 15 µM; inconclusive = mostly about 16 µM to 33 µM; inactive = weaker than that. The list shows a part of the results.
Potency is the fitted concentration of half-maximal effect.

Sequence of UniProt P04062 (P04062 whole entry, looked up): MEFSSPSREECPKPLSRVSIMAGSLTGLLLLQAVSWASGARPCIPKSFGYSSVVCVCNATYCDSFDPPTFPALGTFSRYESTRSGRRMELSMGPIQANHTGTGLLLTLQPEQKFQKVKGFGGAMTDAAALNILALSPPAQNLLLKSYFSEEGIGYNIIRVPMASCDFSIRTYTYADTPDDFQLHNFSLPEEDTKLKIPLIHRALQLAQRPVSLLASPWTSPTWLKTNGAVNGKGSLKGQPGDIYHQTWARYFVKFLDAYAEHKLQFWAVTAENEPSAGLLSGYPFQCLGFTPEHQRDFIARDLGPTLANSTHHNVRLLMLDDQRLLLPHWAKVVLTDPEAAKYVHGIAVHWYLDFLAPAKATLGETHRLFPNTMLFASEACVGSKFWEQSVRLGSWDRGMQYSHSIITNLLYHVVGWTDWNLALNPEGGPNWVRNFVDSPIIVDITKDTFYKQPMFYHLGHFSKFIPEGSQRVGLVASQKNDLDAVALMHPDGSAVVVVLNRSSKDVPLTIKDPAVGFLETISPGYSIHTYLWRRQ

The assay deals with Lysosomal acid glucosylceramidase (Homo sapiens) (UniProt P04062). The assay is described as follows: Glucocerebrosidase.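 Note: the screen sought inhibitors.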 The settings on record: purified enzyme, resorufin glucoside fluorescence (screen aimed at inhibitors), 20 min. The essentials:
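Compounds titrated against 0.2 nM normal enzyme, 30 uM resorufin beta-D-glucopyranoside substrate, citrate/phosphate buffer with taurocholate and tween-20, pH 5.9. Reaction ran 20 min at room temperature; fluorescence (Ex 548/Em 600) gave AC50.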
As to `CCOC(=O)N1CCN(C(=O)c2c(O)c3cccc4c3n(c2=O)CC4)CC1`, the Potency was inactive: > 76.9 µM. Regarding `CCN1CCN(c2ccc(NC(=O)Cc3ccccc3)cc2)CC1`, the Potency result was “inactive”. With `CCOC(=O)CSC1=C(C#N)C(c2ccc(C)cc2)C2=C(CCCC2=O)N1` (stereo unspecified), the Potency is inactive: > 76.9 µM. As to `Cc1ccccc1Cn1cnc2c(nnn2Cc2ccc(F)cc2)c1=O`, the Potency is inactive: > 76.9 µM. The result for `CCCC(=O)Nc1ccccc1NC(=O)C1CCCCC1` reads inactive: > 76.9 µM; that for `CCOC(=O)c1oc2ccccc2c1CSc1nnnn1-c1ccccc1`, inactive: > 76.9 µM; that for `CCc1cc2c(N3CCCCC3)ncnc2s1`, inactive: > 76.9 µM.

For `COc1ccc(C)c(Cn2c(-c3nonc3N)nc3ccccc32)c1`, the Potency is inactive: > 76.9 µM. Consider `CCOC(=O)c1cccc(NC(=O)CSc2nnc(C3CCCCC3)n2CC)c1`, for which the Potency was inactive: > 76.9 µM. With `O=C(CSc1nnc2ccccn12)NCc1cccs1`, the Potency is inactive: > 76.9 µM. In the case of `COc1ccc(C(=O)NCCn2ccc3ccccc32)c(OC)c1`, the Potency was inactive: > 76.9 µM. For `CN(C)CCNc1ncnc2ccccc12`, the Potency is inactive: > 76.9 µM.

As to `Cc1cc(C(=O)NCc2ccc(S(N)(=O)=O)cc2)cs1`, the Potency is inactive: > 76.9 µM. Regarding `Cc1csc(Sc2nc3c(c(=O)[nH]c(=O)n3C)n2Cc2ccccc2Cl)n1`, the Potency is inactive: > 76.9 µM.

For `O=C(COC(=O)c1ccc(Br)c(S(=O)(=O)N2CCOCC2)c1)NCC1CCCO1` (stereo unspecified), the Potency was inactive: > 76.9 µM.

As for `COc1ccc(NC(=O)CSc2nnc(-c3ccccc3)n2N)cc1`, the Potency was inactive: > 76.9 µM. Turning to `CCOC(=O)c1ccccc1NC(=O)Cn1cnc2c(cnn2-c2ccccc2)c1=O`, the Potency was inactive: > 76.9 µM. Turning to `CCOc1ccc(Nc2nc(CC(=O)OC)cc(=O)[nH]2)cc1`, the Potency is inactive: > 76.9 µM. In the case of `CCOc1ccccc1C1CC(=O)NC2=C1C(=O)CCC2` (stereo unspecified), the Potency was inactive: > 76.9 µM. With `CN(C)S(=O)(=O)N1CCC(C(=O)O)(c2ccccc2)CC1`, the Potency was inactive: > 76.9 µM.

On to `COc1ccc(C(=O)Nc2ccc(C)cn2)c(OC)c1`, for which the Potency is inactive: > 76.9 µM. With `COc1ccc(C(c2nnnn2CCc2ccccc2)N2CCN(C3CCCC3)CC2)cc1OC` (stereo unspecified), the Potency result is “inactive”. As for `Cc1c(NC(=O)CSC2=C(C#N)C(c3ccccc3F)CC(=O)N2)c(=O)n(-c2ccccc2)n1C` (stereo unspecified), the Potency was inactive: > 76.9 µM.

For `O=C(OCC(=O)N1CCCC1)c1ccco1`, the Potency was inactive: > 76.9 µM. The result for `CCC(C)Nc1nc(OCC(F)(F)F)nc(OCC(F)(F)F)n1` (stereo unspecified) reads inactive: > 76.9 µM.

Take `Cc1cc(C(F)F)n2nc(C(=O)Nc3ccc(S(=O)(=O)N4CCCCCC4)cc3)nc2n1`: the Potency is inactive: > 76.9 µM. The same measure for `Cc1cc(N2CCC(C)CC2)nc2ccc(N3C(=O)CCC3=O)cc12`: inactive: > 76.9 µM; for `Cc1ccc(S(=O)(=O)N2CCCC2C(=O)n2nc(C)cc2C)cc1` (stereo unspecified): inactive: > 76.9 µM. Regarding `C=CCn1c(Cc2cccs2)nnc1SCC(=O)Nc1ccc(C(=O)OCC)cc1`, the Potency is inactive: > 76.9 µM. In the case of `O=C(O)c1ccc(Cl)c(NC(=O)C2CCCN2S(=O)(=O)c2cccc3nsnc23)c1` (stereo unspecified), the Potency was inactive: > 76.9 µM.

For the compound `CC(O)CN(Cc1cccc(Cl)c1)CC(C)O` (stereo unspecified), the Potency was inactive: > 76.9 µM. Turning to `Cc1ccc(-c2nc(COC(=O)c3c(C)noc3C)cs2)cc1`, the Potency is inactive: > 76.9 µM. The result for `CCOc1ccc(C(=O)Cc2ccc3oc(C(=O)O)cc3c2)c(O)c1` reads inactive: > 76.9 µM. On to `O=C(NCCCN1CCCCC1)c1ccc2c(=O)n(CCc3ccccc3)c(=O)[nH]c2c1`, for which the Potency is inactive: > 76.9 µM. The same measure for `Cc1ccc(-n2nnnc2SCC(=O)c2cc(C)n(-c3cc(C)on3)c2C)c(C)c1`: inactive: > 76.9 µM; for `O=C(COC(=O)C12CC3CC(CC(O)(C3)C1)C2)NC(=O)NCc1ccco1`: inactive: > 76.9 µM. The same measure for `O=C(CSc1nnc2n(C3CCCCC3)c(=O)c3ccccc3n12)OC1CCCCC1`: inactive: > 76.9 µM. With `Cn1c(CCNC(=O)c2ccc(F)cc2)nc2ccccc21`, the Potency was inactive: > 76.9 µM.

With `O=C(NCCc1ccccc1)C1CCCN1C(=O)Nc1ccc(F)cc1` (stereo unspecified), the Potency is inactive: > 76.9 µM.

Take `O=C(CSc1nnc(-c2ccco2)o1)NC(=O)Cc1ccccc1`: the Potency is inactive: > 76.9 µM. As for `COc1cc(C(=O)Nc2nccs2)ccc1OCc1c(C)noc1C`, the Potency was inactive: > 76.9 µM. Take `COc1ccc(-c2nnc(SCC(=O)c3ccc(C)o3)o2)cc1`: the Potency is inactive: > 76.9 µM. As for `Cc1nc(NC2=NCN(C3CCCCC3C)CN2)nc2ccccc12` (stereo unspecified), the Potency was inactive: > 76.9 µM. Take `CCCc1cc(=O)n2[nH]c(-c3ccc(C)cc3)cc2n1`: the Potency was inactive: > 76.9 µM. Take `CCN(C(=O)Cn1c(=O)oc2ccccc21)c1cccc(C(F)(F)F)c1`: the Potency was inactive: > 76.9 µM. Turning to `N#Cc1nc(Cc2cccc3ccccc23)oc1NCc1ccc(F)cc1`, the Potency is inactive: > 76.9 µM.

As to `CC(C)(Oc1ccc(Cl)cc1)C(=O)Nc1ccc2oc(-c3ccncc3)nc2c1`, the Potency was inactive: > 76.9 µM. As for `COc1cc2[nH]c(=O)n(CCCCCC(=O)NCCCN3CCOCC3)c(=O)c2cc1OC`, the Potency entry was “inactive”. With `Cc1ccc(NC(=O)COc2ccc3oc4c(c3c2)CCCC4)nc1`, the Potency is inactive: > 76.9 µM.

Consider `Cc1ccc(-c2csc(=S)n2CC(=O)OCC(=O)NCc2ccco2)cc1`, for which the Potency was inactive: > 76.9 µM. Consider `O=C(c1ccco1)N1CCN(C(=O)c2cnn3c(C(F)(F)F)cc(-c4cccs4)nc23)CC1`, for which the Potency was inactive: > 76.9 µM.

Consider `CCn1cc(/C=C(/C#N)S(=O)(=O)c2ccccc2)cn1`, for which the Potency is inactive: > 76.9 µM. `CCOC(=O)Nc1nnc(-c2cccc(OC)c2)s1`: the Potency is inactive: > 76.9 µM.

For `O=C(Nc1nnc(CCc2ccccc2)s1)c1cccs1`, the Potency was inactive: > 76.9 µM. Consider `O=C1CC(N2CCOCC2)C(=O)N1CCc1ccccc1` (stereo unspecified), for which the Potency is inactive: > 76.9 µM.

Regarding `O=C(COC(=O)c1ccc2c(c1)OCCO2)NCc1ccccc1`, the Potency is inactive: > 76.9 µM. Take `O=C(O)CC(NS(=O)(=O)c1cccc2nsnc12)c1ccc(F)cc1` (stereo unspecified): the Potency was inactive: > 76.9 µM. Consider `COc1cc2c(C(=O)NC3CCCCCC3)cn(C)c(=O)c2cc1OC`, for which the Potency is inactive: > 76.9 µM. With `Cc1ccc(-c2nc3cnccn3c2Nc2ccc3c(c2)OCCO3)o1`, the Potency is inactive: > 76.9 µM. Turning to `O=C(CSc1nnc2ccccn12)Nc1ccccc1C(=O)NC1CC1`, the Potency is inactive: > 76.9 µM. The result for `O=C(c1cccc(C(=O)N2CCN(c3ccccc3F)CC2)n1)N1CCN(c2ccccc2F)CC1` reads inactive: > 76.9 µM.

Consider `COC(=O)CSc1nnc2c3c4c(sc3nc(-n3nc(C)cc3C)n12)COC(C)(C)C4`, for which the Potency was inactive: > 76.9 µM. The same measure for `CCOC(=O)CSc1nnc(-c2ccc(Cl)cc2Cl)o1`: inactive: > 76.9 µM. For the compound `CC(C)(C)S(=O)(=O)c1ccccc1C(=O)O`, the Potency was inactive: > 76.9 µM. With `CCc1nnc(NC(=O)c2ccc(S(=O)(=O)N3CCCCC3C)cc2)s1` (stereo unspecified), the Potency was inactive: > 76.9 µM.

For `O=C(NCC1CCCO1)c1ccccn1` (stereo unspecified), the Potency was inactive: > 76.9 µM. Consider `COC(=O)C1=C(C)N(C)C(C)=C(C(=O)OC)C1c1ccncc1`, for which the Potency was inactive: > 76.9 µM.

Consider `O=C(NCc1ccccc1F)C1CCCN(C(=O)NC2CCCCC2)C1` (stereo unspecified), for which the Potency was inactive: > 76.9 µM. Turning to `COc1ccc(NC(=O)COn2nnc3ccc(Cl)cc32)cc1OC`, the Potency was inactive: > 76.9 µM.

Consider `Cc1cc(NC(=O)c2cnn3c(C(F)F)cc(-c4ccccc4)nc23)no1`, for which the Potency was inactive: > 76.9 µM. The result for `CC(C)Cn1c(N2CCN(C(=O)c3cccs3)CC2)nc2ccccc21` reads inactive: > 76.9 µM; that for `Cc1ccc(-n2nc3c(c2NC(=O)c2c(-c4ccccc4Cl)noc2C)CSC3)cc1`, inactive: > 76.9 µM; that for `CCOC(=O)c1[nH]c(C)c(CN(CCc2ccc(OC)c(OC)c2)C(=O)CCCC(=O)O)c1C`, inactive: > 76.9 µM. For the compound `COCCn1nnnc1C(c1cc2cccc(C)c2[nH]c1=O)N1CCN(c2ccccc2F)CC1` (stereo unspecified), the Potency was inactive: > 76.9 µM. `Cc1[nH]c2ccc(-c3nnc(SCC(=O)c4ccc(F)cc4)o3)cc2c1C`: the Potency was inactive: > 76.9 µM. On to `O=C(O)Cn1nc(-c2ccccc2)c2ccccc2c1=O`, for which the Potency was inactive: > 76.9 µM. As for `Nc1nonc1C(=O)NCCNCc1ccccc1OCc1ccccc1F`, the Potency is inactive: > 76.9 µM. `CCn1c2c(c3cc(C(=O)O)ccc31)CCCC2=O`: the Potency is inactive: > 76.9 µM.

As to `O=C(NCCC(=O)N1CCN(c2ncccn2)CC1)c1ccccc1`, the Potency was inactive: > 76.9 µM. As to `C=CCOc1nc(N2CCCC2)nc(N2CCCC2)n1`, the Potency was inactive: > 76.9 µM. As to `O=C(NCCCNCc1ccccc1)c1ccccn1`, the Potency is inactive: > 76.9 µM. The result for `CCc1c(C(=O)Nc2ncn(Cc3cccc(C)c3)n2)csc1C` reads inactive: > 76.9 µM. The same measure for `COC(=O)N1CN(C(=O)OC)CN(C(=O)OC)C1`: inactive: > 76.9 µM; for `CN1C(=O)CC(N2CCC(c3nc4ccccc4s3)CC2)C1=O` (stereo unspecified): inactive: > 76.9 µM; for `Cc1nc2ccccc2nc1CSc1nncs1`: inactive: > 76.9 µM. The result for `CN(C)c1nc(N)nc(-c2nc3ccccc3s2)n1` reads inactive: > 76.9 µM; that for `C=CCn1c(COc2cccc(C)c2)nnc1SCC(=O)NC(=O)NCc1ccco1`, inactive: > 76.9 µM; that for `COc1cc(CN2CCC(C(=O)N3CCN(c4ccccc4F)CC3)CC2)cc(OC)c1O`, inactive: > 76.9 µM. `COc1ccc(N2CCN(C(=O)CSc3nnc4n3C(C)(C)Cc3ccccc3-4)CC2)cc1`: the Potency was inactive: > 76.9 µM. The result for `COC(=O)[C@@H](NC(=O)Nc1ccccc1F)C(C)C` reads inactive: > 76.9 µM; that for `C=C1CC(C)OC(c2ccccc2OCC(O)CN2CCCCC2)C1` (stereo unspecified), inactive: > 76.9 µM.

The values above are taken from PubChem BioAssay AID360 (National Center for Advancing Translational Sciences (NCATS), 2006).
